Data: PubChem BioAssay AID504832 (National Center for Advancing Translational Sciences (NCATS), 2011)
The campaign covered roughly 310,000 compounds. About 18,000 (5.8%) were called active. Inconclusive results, whose numbers are uncertain, are shown with a selection of clear calls. The call rests on the fitted dose curve; in most records, active means well fitted inhibition curve with a large enough effect; inconclusive means small, poorly fitted or top-dose-only effect, or another doubt; inactive means no such curve, though single readings can be large or run the other way. Potencies of inconclusive entries are left out as doubtful fits.

assay: Primary qHTS for delayed death inhibitors of the malarial parasite plastid, 48 hour incubation; conditions: P. falciparum luciferase growth in erythrocytes; series mostly up to 28.7 µM
Procedure, shortened: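 Cell-based growth assay: transgenic P. falciparum expressing firefly luciferase, cultured in red cells within RPMI 1640 containing 0.5% w/v Albumax, 24 mM bicarbonate and gentamycin. A drop in luciferase activity indicates inhibition.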
Potency means the concentration at half of the fitted maximal effect; tags describe the fitted curve by direction and shape.

Row | Compound | Potency
1 | CCN(CCCNC(=O)CN(C)S(=O)(=O)c1ccc2c(c1)CCC(=O)N2)c1cccc(C)c1 | inconclusive [inhibitor, partial curve]
2 | CC(C)(C)OC(=O)NCc1ccc(CNC(=O)c2nc[nH]c2C(=O)N2CCN(C(=O)OC(C)(C)C)CC2)cc1 | inconclusive [inhibitor, partial curve]
3 | O=C(CCCCn1c(=O)c2ccccc2n(Cc2ccc(F)cc2)c1=O)NCc1ccco1 | inconclusive [inhibitor, partial curve]
4 | O=C(NCC#CCSc1nnc(-c2cccc3ccccc23)o1)c1cccs1 | inconclusive [inhibitor, single point]
5 | CCOC(=O)/C=C/[C@H]1CCc2cccc(Cl)c2O1 | inconclusive [inhibitor, single point]
6 | COc1ccc(-n2c(=S)[nH]c3cc(C(=O)Nc4cc(OC)c(OC)c(OC)c4)ccc3c2=O)c(OC)c1 | inconclusive [inhibitor, single point]
7 | FC(F)(F)c1cc(CO[C@@H]2CCCN[C@@H]2c2ccccc2)cc(C(F)(F)F)c1 | active: 11.7 µM
8 | COc1cc(C2/C(=C(\O)c3ccc4c(c3)CC(C)O4)C(=O)C(=O)N2CCCn2ccnc2)ccc1O (configuration not stated) | inactive
9 | Cc1cc(C)nc(Sc2ncnc(N)c2[N+](=O)[O-])n1 | inconclusive [inhibitor, partial curve]
10 | O=C(NC1CCC(O)CC1)C1CCN(S(=O)(=O)c2c(Cl)cccc2Cl)CC1 (configuration not stated) | inconclusive [inhibitor, partial curve]
11 | CC(=O)N1N=C(c2ccncc2)OC1(Cc1ccccc1)Cc1ccccc1 | inconclusive [inhibitor, full curve, poor fit]
12 | Cc1cc(OCc2nc(-c3ccncc3)no2)cc(C)c1Cl | inconclusive [inhibitor, single point]
13 | COc1cccc(Cn2c(=O)c3ccccc3n3nc(C)cc23)c1 | inconclusive [inhibitor, single point]
14 | Cn1c(=O)c2c(-c3cccc(Br)c3)c(C#N)c(N)nc2n(C)c1=O | inconclusive [inhibitor, partial curve, poor fit]
15 | CCOc1ccc(N(CC(=O)NCc2ccc(Cl)cc2)S(=O)(=O)c2ccccc2)cc1 | inconclusive [inhibitor, single point]
16 | N/C(=N\c1nc2ccccc2o1)NC(=O)/C=C/c1ccccc1 | inactive
17 | COc1ccc(C(=O)N/C(=C\c2cn(C)c3ccccc23)C(=O)OCC(C)C)cc1 | inconclusive [inhibitor, single point]
18 | Cc1ccc2nc(-c3ccc(NS(=O)(=O)c4c(C)n(C)c(=O)n(C)c4=O)cc3)sc2c1 | inactive
19 | Cc1ccc(NC(=O)[C@@H]2CCCN2C(=O)c2cccs2)cc1S(=O)(=O)N1CCCCC1 | inconclusive [inhibitor, single point]
20 | Cc1cc(=O)n2cccc(O)c2n1 | inconclusive [inhibitor, partial curve]
21 | COc1ccc(CCNC(=O)C2CCN(Cc3nc(-c4ccccc4F)oc3C)CC2)cc1OC | inconclusive [inhibitor, partial curve, poor fit]
22 | C=C(C)COc1ccc(-c2[nH]ncc2-c2ccc(OC)cc2)c(O)c1 | inconclusive [inhibitor, single point]
23 | COc1cc(/C=N/n2c(-c3n[nH]c4c3CCC4)n[nH]c2=S)ccc1O | inactive

Row | Compound | Potency
24 | COC(=O)[C@@H]1[C@@H]2C[C@H]3c4[nH]c5cc(OC)ccc5c4CCN3C[C@@H]2C[C@H](OC(=O)/C=C\c2cc(OC)c(OC)c(OC)c2)[C@H]1OC | active: 5.1 µM
25 | CN(C)S(=O)(=O)c1ccc(Cl)c(NC(=O)CN2C(=O)NC(C)(C3CC3)C2=O)c1 (configuration not stated) | inactive
26 | COc1cc2c(cc1OC)C(c1ccccc1[N+](=O)[O-])N(C(C)=O)CC2 (configuration not stated) | inconclusive [inhibitor, partial curve, poor fit]
27 | CCOC(=O)CNC(=O)CSc1nnc(C)c(=O)[nH]1 | inactive
28 | O=C(c1ccccc1)N1CCN(C(=O)c2nn3c(C(F)(F)F)cc(-c4ccco4)nc3c2Br)CC1 | active: 10.4 µM
29 | Cc1ccc2c(c1)C(c1ccccc1)N(C(=O)c1ccc3c(c1)OCO3)CC(=O)N2 (configuration not stated) | inconclusive [inhibitor, partial curve]
30 | CC(C)NC(=O)Cn1c(SCC(=O)N2c3ccccc3CC2C)nc2ccccc21 (configuration not stated) | inconclusive [inhibitor, single point]
31 | COc1ccc2c(c1)CCC1=C2NC(=S)NC1c1ccc(N(C)C)cc1 (configuration not stated) | inconclusive [inhibitor, partial curve, poor fit]
32 | O=C(C1CCC1)N1CCN(S(=O)(=O)c2cccc(F)c2)CC1 | inconclusive [inhibitor, single point]
33 | O=c1c2ccccc2ncn1CCCSc1ccccc1 | inactive
34 | COc1cc(/C=C/C(=O)OCC(=O)N2CCCC2)cc(OC)c1OC | inconclusive [inhibitor, single point]
35 | Cc1cc(=O)[nH]c(Nc2cccc(C(F)(F)F)c2)n1 | inconclusive [inhibitor, single point]
36 | O=C(NCCCN1CCOCC1)C(=O)N/N=C/c1c2ccccc2cc2ccccc12 | inactive
37 | COc1c2ccoc2nc2c(OC)c(O)ccc12 | inconclusive [inhibitor, partial curve, poor fit]
38 | Cc1ccc(-c2cnc(SCCNC(=O)c3ccco3)[nH]2)cc1 | inconclusive [inhibitor, single point]
39 | COC(=O)c1ccc(NC(=O)CSc2nnc(CNc3ccc(OC)cc3)n2C)cc1 | inconclusive [inhibitor, partial curve, poor fit]
40 | CCCC(=O)Nc1ccc2oc(-c3cncc(Br)c3)nc2c1 | inactive
41 | O=C(OC[C@@H]1CCCN2CCCC[C@H]12)c1cc2ccccc2oc1=O | inactive
42 | COC(=O)C1=C(N)Oc2cc(N(C)C)ccc2C1c1ccccc1OC (configuration not stated) | inconclusive [inhibitor, full curve, poor fit]
43 | COc1ccc(C(=O)NC(=S)N2CCOCC2)cc1Br | inconclusive [inhibitor, single point]
44 | Cc1ccc(C(=O)Nc2cccc(O)c2)cc1S(=O)(=O)N1CCCCCC1 | inactive
45 | Cc1cc(Cl)ccc1NC(=O)CN1C(=O)C(=O)N(C2CCCC2)C1=O | inconclusive [inhibitor, partial curve, poor fit]
46 | Cc1cc(C(=O)NCC(c2ccco2)N2CCCC2)c2ccccc2n1 (configuration not stated) | inconclusive [inhibitor, single point]

Row | Compound | Potency
47 | Cc1cc(NC(=O)COC(=O)c2cc(S(=O)(=O)N(C)C)ccc2Cl)no1 | inactive
48 | CCCCN(CCCNc1ncnc2nc[nH]c12)c1ccccc1 | inconclusive [inhibitor, single point]
49 | Cc1cccc(C2c3[nH]c4ccccc4c3CCN2Cc2cnn(-c3ccc(F)cc3)c2)n1 (configuration not stated) | active: 10.4 µM
50 | N#Cc1ccsc1NC(=O)CN1CCN(c2ccc(O)cc2)CC1 | inconclusive [inhibitor, single point]
51 | COC(=O)c1cc2c(ccn2-c2ccc(F)cc2)n1Cc1ccc(OC)cc1 | inconclusive [inhibitor, single point]
52 | CN1CCN(CCC(=O)N/N=C/c2cc3c(cc2[N+](=O)[O-])OCO3)CC1 | inactive
53 | O=C(O)CCCN1C(=O)/C(=C\C(Cl)=C\c2ccccc2)SC1=S | active: 9.28 µM
54 | COc1ccc(S(=O)(=O)NCC(=O)NC2CC2)cc1OC | inactive
55 | CN(C)c1ccc(C(C(=O)NC2CCCC2)N(C(=O)c2ccco2)C2CC2)cc1 (configuration not stated) | inconclusive [inhibitor, partial curve, poor fit]
56 | COc1ccc(C(=O)Oc2c(CN3CCOCC3)cc(Cl)c3cccnc23)cc1 | active: 14.7 µM
57 | Cc1ccc(N(CC(=O)NCc2ccc(F)cc2)S(=O)(=O)c2c(C)nn(C)c2C)cc1 | inconclusive [inhibitor, partial curve, poor fit]
58 | COc1ccc(-n2ncc3c2CC(C)(C)CC3NC(=O)CCc2c(C)noc2C)cc1 (configuration not stated) | inconclusive [inhibitor, partial curve, poor fit]
59 | O=C(Nn1cc(C(=O)N2CCN(c3ccccc3F)CC2)c2ccccc2c1=O)c1cnccn1 | active: 10.4 µM
60 | CC(C)c1ccc(NC2CCCN(C(=O)CCN3CCCCC3=O)C2)cc1 (configuration not stated) | inactive
61 | CC(C)COc1ccc(C(=O)N/N=C/c2ccoc2)cc1 | inactive
62 | COc1ccc(-c2nsc3c(N4CCN(S(=O)(=O)c5ccccc5)CC4)ncnc23)cc1 | inactive
63 | COCCCNC(=O)CS(=O)Cc1nc(-c2cccc(OC)c2)oc1C (configuration not stated) | inconclusive [inhibitor, full curve]
64 | c1ccc(-c2nc(C3CCCCC3)no2)cc1 | inactive
65 | CCOC(=O)N1CCN(c2cc(N3CCN(CC)CC3)c(F)cc2[N+](=O)[O-])CC1C (configuration not stated) | inconclusive [inhibitor, partial curve]
66 | CC(=O)c1ccc(N2CCN(C(=O)CCCc3nc4ccccc4s3)CC2)cc1 | inconclusive [inhibitor, single point]
67 | OCC1CCCN(C(=S)Nc2ccc(Oc3ccccc3)cc2)C1 (configuration not stated) | inactive
